# Laboratory results published in PubChem BioAssay AID2675 (National Center for Advancing Translational Sciences (NCATS), 2010).
# About 100 (0.036%) of roughly 280,000 compounds were called active. The shares of active, inactive and inconclusive entries below differ from those in the screen. Calls follow the shape of the dose curve; as a rule, active = well fitted inhibition curve with a large enough effect in the signal ratio, with a control signal flat (not every such curve was filed as active); inconclusive = small, poorly fitted or top-dose-only effect, or effect the other way, or a change in a side signal; inactive = no such curve, though single readings can be large or run the other way; the % refers to the signal ratio. A potency beside an inconclusive call is a rough fit, not a confirmed value. “Side channel” marks fits to a control or component signal instead of the main read-out.
# Biological target: Muscleblind-like protein 1 (Homo sapiens) (UniProt Q9NR56)
# Experiment: qHTS Assay for Inhibitors of MBNL1-poly(CUG) RNA binding
# Details: TR-FRET MBNL1-His/biotin-(CUG)12 binding, 665/545 ratio; series mostly up to 57.5 µM
# In short: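 Ratiometric TR-FRET (665 over 545 nm, excitation 340 nm) tracks disruption of MBNL1-His/biotin-(CUG)12 complex after 60 min at room temperature, with compounds at 92 nM to 58 uM final.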
# Potency is read from the fitted curve at half-maximal effect; tags tell the direction and shape of the fitted curve or compound fluorescence and quenching.
# Sequence of UniProt Q9NR56 (Q9NR56 whole entry, looked up): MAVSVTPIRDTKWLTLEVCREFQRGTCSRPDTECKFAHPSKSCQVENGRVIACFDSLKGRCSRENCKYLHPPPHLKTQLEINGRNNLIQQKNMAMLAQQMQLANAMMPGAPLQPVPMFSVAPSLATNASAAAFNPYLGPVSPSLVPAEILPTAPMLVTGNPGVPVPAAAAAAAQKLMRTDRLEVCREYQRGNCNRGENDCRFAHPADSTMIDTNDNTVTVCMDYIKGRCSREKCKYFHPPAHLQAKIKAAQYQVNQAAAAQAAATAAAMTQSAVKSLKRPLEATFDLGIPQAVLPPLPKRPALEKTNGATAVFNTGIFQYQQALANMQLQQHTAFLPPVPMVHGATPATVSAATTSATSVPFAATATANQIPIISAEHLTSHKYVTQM
row,Compound,Potency
1,[O-][n+]1onc2c1CCc1c-2nn(-c2ccccc2Cl)[n+]1[O-],"inconclusive: 14.1 µM [quencher, side channel, partial curve]"
2,O=C(c1ccccc1)N1N=C(c2ccco2)CC1c1cccs1 (stereo not drawn),inactive
3,NC(=O)CC12CC3CC(C1)CC(CC(N)=O)(C3)C2,inactive
4,COc1ccc(C(=O)N/N=C/c2sc3ccccc3c2O)cc1,"inconclusive: 0.631 µM [quencher, side channel, full curve, poor fit]"
5,O=C1CC(c2ccccc2)CC(O)=C1C=Nc1ccc(O)cc1 (stereo not drawn),"inconclusive: 22.4 µM [quencher, side channel, single point]"
6,Cc1cccc(/C=C(\c2nc3ccccc3[nH]2)S(=O)(=O)c2ccccc2)c1,"inconclusive: 0.1 µM [fluorescent, side channel, full curve, poor fit]"
7,CCOc1ccc(N2C(=O)CC(Sc3ncccn3)C2=O)cc1 (stereo not drawn),inactive
8,Cc1ccc2[nH]c3c(=S)nc[nH]c3c2c1,"inconclusive: 2.82 µM [fluorescent, full curve]"
9,CCOC(=O)CCCCCN(Cc1ccccc1)S(=O)(=O)c1ccc([N+](=O)[O-])cc1,"inconclusive: 31.6 µM [quencher, single point]"
10,O=C1c2ccncc2C(=O)N1Cc1cccc(Cl)c1,"inconclusive: 17.8 µM [quencher, side channel, partial curve]"
11,COc1ccc2nc(NC(=O)c3ccc(-c4cccc([N+](=O)[O-])c4)o3)sc2c1,"inconclusive: 0.1 µM [fluorescent, side channel, full curve, poor fit]"
12,O=C(CN1CCN(c2ccc(O)cc2)CC1)Nc1cc([N+](=O)[O-])ccc1Cl,"inconclusive: 12.6 µM [quencher, side channel, partial curve]"
13,CCN(CC)S(=O)(=O)c1ccc(C)c(NC(=S)N2CCN(c3ccccn3)CC2)c1,inactive
14,CCOc1ccc(/C=C2/C(=N)N3OC(C)=CC3=NC2=O)cc1OC,inactive
15,CCOC(=O)N1CCN(C(=O)c2cccn3c(=O)c4cc(Br)ccc4nc23)CC1,inactive
16,O=C(Cc1cccc2ccccc12)N/N=C/c1ccc(O)c([N+](=O)[O-])c1,"inconclusive: 39.8 µM [quencher, side channel, single point]"
17,Cc1ccc(-c2[nH]c3cc(C(=O)NCCCn4ccnc4)ccc3c(=O)c2O)cc1,"inconclusive: 35.5 µM [quencher, side channel, single point]"
18,CN1C(=O)c2ccc(C(=O)Nc3ccccc3O)cc2C1=O,"inconclusive: 14.1 µM [quencher, partial curve]"
